# Source: PubChem BioAssay AID1460 (National Center for Advancing Translational Sciences (NCATS), 2008)
# Several values for one entry are separate records, joined by “and”; a condition that tells them apart may be missing. Identical values can stand only once. The whole screen tested about 270,000 compounds, of which about 5,800 (2.1%) were called active. Inconclusive means that the source gave no clear call. Such entries were picked first, then a sample of the others. Calls come from the whole dose curve; as a rule, active = well fitted inhibition curve with a large enough effect; inconclusive = small, poorly fitted or top-dose-only effect; inactive = flat fitted curve, though single readings scatter. Potencies beside an inconclusive call are fits to weak or partial responses and may not hold up.
# Molecular target: Microtubule-associated protein tau (Homo sapiens) (UniProt P10636)
# Assay: qHTS for Inhibitors of Tau Fibril Formation, Thioflavin T Binding; note: nearly all actives have a fitted effect of over 55% in size
# Conditions: recombinant tau K18 P301L (four-repeat tau fragment), heparin-induced fibrillization, ThT fluorescence; series mostly up to 57.4 µM; activity, negative = inhibition: at the top concentration
# Method in brief: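 Heparin-induced (20 uM) aggregation of recombinant human K18 P301L tau, 15 uM unlabeled with 0.24 uM labeled, pH 7 acetate buffer, 6 hr at 37 C with compound. Fibrils quantified by 30 uM ThT fluorescence after 1 hr ambient incubation.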
# % is set by controls: 0 for no effect and ±100 for the full control effect; potency is the fitted concentration of half-maximal effect; tags give direction and shape of the fitted curve.
# Chain of UniProt P10636 (P10636 whole entry, looked up): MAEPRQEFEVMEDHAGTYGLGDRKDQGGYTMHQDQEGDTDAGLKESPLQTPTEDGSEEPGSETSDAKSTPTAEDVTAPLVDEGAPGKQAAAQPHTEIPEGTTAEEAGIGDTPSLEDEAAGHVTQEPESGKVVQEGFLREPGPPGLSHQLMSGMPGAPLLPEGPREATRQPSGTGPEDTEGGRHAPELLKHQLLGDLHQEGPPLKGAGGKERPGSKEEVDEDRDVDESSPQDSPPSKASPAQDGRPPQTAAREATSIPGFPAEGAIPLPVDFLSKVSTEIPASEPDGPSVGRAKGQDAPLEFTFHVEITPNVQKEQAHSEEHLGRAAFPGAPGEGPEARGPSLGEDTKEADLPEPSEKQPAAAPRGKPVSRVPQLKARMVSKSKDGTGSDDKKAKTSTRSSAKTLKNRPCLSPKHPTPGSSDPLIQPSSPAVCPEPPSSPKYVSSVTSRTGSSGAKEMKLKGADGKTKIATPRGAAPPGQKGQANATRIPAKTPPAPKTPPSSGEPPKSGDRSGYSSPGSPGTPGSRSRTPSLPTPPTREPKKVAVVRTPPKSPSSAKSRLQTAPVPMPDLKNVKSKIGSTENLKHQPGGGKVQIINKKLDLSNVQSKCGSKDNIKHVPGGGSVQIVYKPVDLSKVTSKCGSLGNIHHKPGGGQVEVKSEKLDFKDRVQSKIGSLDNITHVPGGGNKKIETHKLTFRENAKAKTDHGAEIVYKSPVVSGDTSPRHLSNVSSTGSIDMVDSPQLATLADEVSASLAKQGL
Compound,Potency,"activity, negative = inhibition"
Cc1ccc(-c2cc(C(=O)NCc3cnn(C)c3C)c3cc(Br)ccc3n2)cc1,"inconclusive: 31.6 µM [inhibitor, partial curve, poor fit]",
O=[N+]([O-])c1cc2c(cc1/C=N\NS(=O)(=O)c1ccccc1)OCO2,"inconclusive: 7.94 µM [inhibitor, partial curve]",
Cc1ccc(NC2=C(c3ccc(C(F)(F)F)cc3)C(=O)c3ccccc32)cc1C,"inconclusive: 10 µM [inhibitor, partial curve]",
COc1ccc(NS(=O)(=O)c2ccc3oc4ccccc4c3c2)cn1,,inactive: 9.5%
Cc1ccc(Nc2nc(N)nc(CN3CCN(c4ccccc4F)CC3)n2)cc1,"inconclusive: 39.8 µM [inhibitor, partial curve]",
CCN(CC)c1ccc(NC(=O)C(C)C)cc1,,inactive: 5.43%
O=C(Nc1ccc(S(=O)(=O)N2CCOCC2)cc1)c1cc(-c2ccccc2O)n[nH]1,"inconclusive: 3.55 µM [activator, full curve, poor fit]",
CCCCOc1ccc(C(O)(CC)CCN2CCOCC2)cc1 (configuration not stated),,inactive: -8.77%
COc1ccc(Cl)cc1Nc1sc(C(=O)c2ccccc2)c(N)c1C(=O)Nc1ccccc1,"inconclusive: 39.8 µM [inhibitor, single point]",
N#CCc1ccc(NC(=O)/C=C/c2ccc([N+](=O)[O-])o2)cc1,active: 11.2 µM,
CC1CN(CN2C(=O)c3ccccc3C2=O)CC(C)O1 (configuration not stated),,inactive: -2.94%
Cc1ccc(C2C(C#N)=C(N)Oc3c2sc2ccccc32)o1 (configuration not stated),active: 14.1 µM,
CCN(CC)c1ccc(/C=N/NC(=O)c2ccoc2C)cc1,active: 10 µM,
COc1cccc(OC)c1NC(=O)NC(=O)c1c(OC)c(Br)cc([N+](=O)[O-])c1OC,"inconclusive: 39.8 µM [inhibitor, single point]",
CC1=C(CC(=O)c2ccc(Cl)cc2)C(=O)c2ccccc2C1=O,"inconclusive: 22.4 µM [inhibitor, single point]",
CNC(=O)C(Sc1ccccc1)c1ccccc1 (configuration not stated),,inactive: 1.71%
O=C(O)P(=O)(O)O,,inactive: -2.81%
C/C=C1\C(=O)CC2C3CCC4=CC(=O)CC[C@]4(C)C3CC[C@]12C (some centres not stated),"inconclusive: 25.1 µM [inhibitor, partial curve] and inconclusive: 8.91 µM [inhibitor, partial curve]",
CN1/C(=C\C=N\NC(=O)c2ccc(O)cc2)C(C)(C)c2ccccc21,"inconclusive: 20 µM [inhibitor, partial curve]",
CC(/C=C/C(=O)c1ccc(C)cc1)=C\c1ccccc1,"inconclusive: 7.94 µM [inhibitor, partial curve]",
N#Cc1cc(-c2ccccc2)oc1NC(=O)c1ccco1,"inconclusive: 5.01 µM [inhibitor, partial curve]",
O=C(Nc1nncs1)c1cccc(S(=O)(=O)N2CCc3ccccc32)c1,,inactive: 2.3%
N#Cc1c(NC(=O)c2cnn3cccnc23)sc2c1CCCC2,,inactive: -17.1%
C/C(=N\Nc1cc(C)nc(NCc2ccccc2)n1)c1cccc([N+](=O)[O-])c1,"inconclusive: 3.16 µM [inhibitor, full curve, poor fit]",

Compound,Potency,"activity, negative = inhibition"
O=C(Nc1ccc(Cl)cc1)C1CCN(c2nc3ccccc3nc2C(F)(F)F)CC1,,inactive: 4.72%
O=C(N/N=C/c1ccncc1)c1cc2ccccc2o1,"inconclusive: 22.4 µM [inhibitor, single point]",
O=C(NCC(c1cccnc1)N1CCc2ccccc2C1)c1ccc(F)c(F)c1 (configuration not stated),,inactive: -1.65%
CCOC(=O)CSC1=C(C#N)C(c2ccc3c(c2)OCO3)CC(=O)N1 (configuration not stated),,inactive: -1.9%
CC(=O)c1ccc(-c2ccc(C(=O)NC3CCCCCC3)o2)cc1,"inconclusive: 39.8 µM [inhibitor, single point]",
CC1(C)CC(=O)C(CC(=O)NC2CCCc3ccccc32)C(=O)C1 (configuration not stated),,inactive: -1.27%
CC1=C(C(=O)Nc2ccc(C)cc2C)C(c2ccccc2[N+](=O)[O-])n2ncc(C(=O)Nc3ccccc3)c2N1 (configuration not stated),"inconclusive: 28.2 µM [inhibitor, partial curve]",
O=C(c1cncc(Br)c1)N1CCN(c2ccc([N+](=O)[O-])cc2)CC1,"inconclusive: 12.6 µM [inhibitor, partial curve]",
N#Cc1c(NC(=O)c2cccc(S(=O)(=O)Nc3ccc(C(=O)O)cc3)c2)sc2c1CCCC2,"inconclusive: 22.4 µM [inhibitor, partial curve]",
COc1ccc(OC)c(N2C(N)=NC(N)=NC23CCCC3)c1,"inconclusive: 44.7 µM [inhibitor, partial curve, poor fit]",
Cc1c(C(=S)NC(=O)C2CC2)c(=O)n(-c2ccccc2)n1C,"inconclusive: 22.4 µM [inhibitor, partial curve]",
Clc1ccc(N2CCOCC2)nn1,,inactive: -9.36%
Cc1ccc(C)c(N2CCN(C(=O)C3CCN(c4nc(-c5ccc(C(C)C)cc5)no4)CC3)CC2)c1,"inconclusive: 35.5 µM [inhibitor, single point]",
Cc1ccc(C(=O)N2CCc3cc(CNS(=O)(=O)c4ccc(Cl)s4)ccc32)cc1,,inactive: 1.52%
O=C(O)c1ccc(CN2C(=O)CSC2=S)cc1,"inconclusive: 25.1 µM [inhibitor, partial curve]",
CCOc1ccc(NC(=O)c2ccc3c(SCC(=O)O)c4c(nc3c2)CCCC4)cc1,"inconclusive: 17.8 µM [inhibitor, partial curve]",
Cc1cc(N=Cc2c(O)ccc3ccccc23)no1,active: 22.4 µM,
Cc1ncc(CCl)c2c1OC(C)(C)OC2,,inactive: -6.87%
Nc1ccc(N=Nc2ccccc2Cl)c(N)n1,active: 2 µM,
Cc1ccc(-c2csc(N/N=C/C=C/c3ccccc3)n2)cc1,"inconclusive: 17.8 µM [inhibitor, partial curve]",
CC(N=Cc1cccc(O)c1O)c1ccccc1 (configuration not stated),active: 5.01 µM,
O=C(/C=C/c1ccc2c(c1)OCO2)Nc1nc(-c2ccc(F)cc2F)cs1,"inconclusive: 3.98 µM [inhibitor, partial curve]",
CCOc1ccc(N=CC2=C(O)CC(c3ccco3)CC2=O)cc1 (configuration not stated),"inconclusive: 8.91 µM [inhibitor, partial curve]",
